Data: PubChem BioAssay AID588689 (Southern Research Specialized Biocontainment Screening …, 2011)
The whole screen tested about 340,000 compounds, of which about 1,000 (0.29%) were called active. Inconclusive results, whose numbers are uncertain, are shown with a selection of clear calls. Cut-off read from the data, not from the text of the source: inconclusive = inhibition above about 29% without an active follow-up result; inactive = below that.

Target: Genome polyprotein (Dengue virus type 2 (strain 16681-PDK53)) (UniProt P29991)
Sequence of UniProt P29991 (P29991 whole entry, looked up): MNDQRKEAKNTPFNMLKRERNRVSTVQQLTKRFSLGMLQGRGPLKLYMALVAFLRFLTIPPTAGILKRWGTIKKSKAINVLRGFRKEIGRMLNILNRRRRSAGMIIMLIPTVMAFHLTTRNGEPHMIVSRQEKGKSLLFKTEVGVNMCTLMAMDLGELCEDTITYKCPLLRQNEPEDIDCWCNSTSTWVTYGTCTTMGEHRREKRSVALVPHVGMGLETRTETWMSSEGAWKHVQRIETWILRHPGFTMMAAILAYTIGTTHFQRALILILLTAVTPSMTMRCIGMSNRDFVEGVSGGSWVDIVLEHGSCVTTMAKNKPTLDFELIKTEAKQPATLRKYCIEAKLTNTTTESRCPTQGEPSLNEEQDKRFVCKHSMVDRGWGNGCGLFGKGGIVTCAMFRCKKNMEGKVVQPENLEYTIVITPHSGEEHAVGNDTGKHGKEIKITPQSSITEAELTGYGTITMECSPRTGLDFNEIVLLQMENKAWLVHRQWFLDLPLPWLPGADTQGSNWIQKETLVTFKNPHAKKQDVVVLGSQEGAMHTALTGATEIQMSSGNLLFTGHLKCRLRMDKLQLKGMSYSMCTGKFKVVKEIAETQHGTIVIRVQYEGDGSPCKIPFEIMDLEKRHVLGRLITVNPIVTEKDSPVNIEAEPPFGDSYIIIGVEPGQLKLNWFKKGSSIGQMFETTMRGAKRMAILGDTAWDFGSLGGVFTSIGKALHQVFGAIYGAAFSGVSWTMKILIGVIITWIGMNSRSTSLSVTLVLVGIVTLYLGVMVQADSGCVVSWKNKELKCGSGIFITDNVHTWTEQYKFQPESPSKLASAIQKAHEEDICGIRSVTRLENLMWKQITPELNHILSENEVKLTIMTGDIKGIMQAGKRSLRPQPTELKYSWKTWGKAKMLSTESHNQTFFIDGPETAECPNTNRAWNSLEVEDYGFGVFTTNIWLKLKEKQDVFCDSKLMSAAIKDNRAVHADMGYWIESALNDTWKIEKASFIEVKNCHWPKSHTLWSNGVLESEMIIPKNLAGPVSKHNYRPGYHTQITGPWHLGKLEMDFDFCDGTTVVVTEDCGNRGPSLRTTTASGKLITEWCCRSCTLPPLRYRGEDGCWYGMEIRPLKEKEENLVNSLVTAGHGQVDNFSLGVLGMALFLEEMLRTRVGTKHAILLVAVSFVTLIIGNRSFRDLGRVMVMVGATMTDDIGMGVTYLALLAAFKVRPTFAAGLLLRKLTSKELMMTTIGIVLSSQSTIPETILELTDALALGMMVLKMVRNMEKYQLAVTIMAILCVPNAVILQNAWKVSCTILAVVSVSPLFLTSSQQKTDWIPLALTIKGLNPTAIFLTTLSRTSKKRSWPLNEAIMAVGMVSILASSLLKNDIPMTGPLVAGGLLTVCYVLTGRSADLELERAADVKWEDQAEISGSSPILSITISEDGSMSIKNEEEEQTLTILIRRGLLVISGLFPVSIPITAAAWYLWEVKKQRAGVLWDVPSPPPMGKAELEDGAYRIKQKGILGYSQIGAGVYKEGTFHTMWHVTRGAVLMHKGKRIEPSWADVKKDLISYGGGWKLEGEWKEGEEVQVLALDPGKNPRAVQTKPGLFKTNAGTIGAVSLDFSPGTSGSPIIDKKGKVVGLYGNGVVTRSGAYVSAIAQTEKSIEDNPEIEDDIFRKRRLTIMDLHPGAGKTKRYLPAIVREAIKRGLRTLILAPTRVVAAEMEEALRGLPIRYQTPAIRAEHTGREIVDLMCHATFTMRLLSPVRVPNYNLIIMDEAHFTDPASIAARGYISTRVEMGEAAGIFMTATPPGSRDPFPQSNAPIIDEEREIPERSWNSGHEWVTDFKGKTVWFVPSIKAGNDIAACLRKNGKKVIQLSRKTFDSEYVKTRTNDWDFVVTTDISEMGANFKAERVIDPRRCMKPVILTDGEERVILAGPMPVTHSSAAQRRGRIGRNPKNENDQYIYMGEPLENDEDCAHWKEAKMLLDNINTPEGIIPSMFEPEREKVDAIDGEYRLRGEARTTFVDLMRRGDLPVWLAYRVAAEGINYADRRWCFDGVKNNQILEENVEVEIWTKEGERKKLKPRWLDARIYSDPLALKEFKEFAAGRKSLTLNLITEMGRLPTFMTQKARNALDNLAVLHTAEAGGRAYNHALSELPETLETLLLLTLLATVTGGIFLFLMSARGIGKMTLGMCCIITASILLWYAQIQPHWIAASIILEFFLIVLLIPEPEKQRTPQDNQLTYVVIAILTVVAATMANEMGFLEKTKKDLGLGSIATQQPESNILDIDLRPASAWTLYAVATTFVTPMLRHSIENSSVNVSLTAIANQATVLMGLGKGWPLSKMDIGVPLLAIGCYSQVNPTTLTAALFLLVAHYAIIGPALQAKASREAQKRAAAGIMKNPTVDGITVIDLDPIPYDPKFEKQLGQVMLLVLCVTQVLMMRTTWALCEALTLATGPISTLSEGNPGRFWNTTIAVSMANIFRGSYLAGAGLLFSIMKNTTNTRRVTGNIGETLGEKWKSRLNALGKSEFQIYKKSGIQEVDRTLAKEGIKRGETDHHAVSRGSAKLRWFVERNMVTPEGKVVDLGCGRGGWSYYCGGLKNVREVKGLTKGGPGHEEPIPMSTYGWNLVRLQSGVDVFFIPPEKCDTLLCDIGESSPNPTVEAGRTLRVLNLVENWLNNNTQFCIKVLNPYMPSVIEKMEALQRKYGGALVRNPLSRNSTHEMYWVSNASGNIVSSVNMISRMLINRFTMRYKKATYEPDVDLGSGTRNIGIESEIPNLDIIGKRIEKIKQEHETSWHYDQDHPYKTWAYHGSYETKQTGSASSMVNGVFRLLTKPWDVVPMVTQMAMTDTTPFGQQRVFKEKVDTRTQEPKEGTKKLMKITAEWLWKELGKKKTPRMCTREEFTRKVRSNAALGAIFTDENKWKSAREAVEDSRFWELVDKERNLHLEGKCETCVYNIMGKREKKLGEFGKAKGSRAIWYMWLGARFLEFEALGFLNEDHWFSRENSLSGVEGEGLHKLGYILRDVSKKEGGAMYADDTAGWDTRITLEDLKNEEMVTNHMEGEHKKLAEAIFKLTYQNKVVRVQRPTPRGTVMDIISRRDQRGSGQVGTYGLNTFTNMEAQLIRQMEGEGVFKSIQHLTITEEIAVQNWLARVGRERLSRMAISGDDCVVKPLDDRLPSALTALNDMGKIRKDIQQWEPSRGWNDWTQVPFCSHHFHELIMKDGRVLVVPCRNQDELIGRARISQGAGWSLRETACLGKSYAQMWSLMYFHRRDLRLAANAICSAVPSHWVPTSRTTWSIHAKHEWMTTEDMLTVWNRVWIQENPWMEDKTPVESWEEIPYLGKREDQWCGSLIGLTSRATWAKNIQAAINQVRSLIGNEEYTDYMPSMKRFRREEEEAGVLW
Assay: Dengue-2 NS5 methyltransferase inhibitors, primary screen, biochemical, confirmation dose response (AID 588689)
Conditions: Dengue-2 NS5 methyltransferase capping enzyme assay, at 25 µM, stronger effect = higher value

Compound | inhibition
O=S(=O)(O)c1cc(O)c2c(O)c(N=Nc3cc(Cl)ccc3O)c(S(=O)(=O)O)cc2c1 | inconclusive: 47.6%
N#C/C(=C\c1ccc(OCc2ccccc2)cc1)C(=O)Nc1nc2c(s1)CCN(Cc1ccccc1)C2 | inconclusive: 33.9%
O=Cc1c(Cl)cccc1Cl | inactive: 0%
O=[n+]1c2c(n([O-])c3cc(F)c(N4CCCC4)cc31)CCC2 | inconclusive: 110%
Cn1c(=O)[nH]c(=O)c2c1nc(N(CCO)Cc1ccccc1)n2Cc1ccccc1Cl | inconclusive: 152%
CN(C)/N=C/C=C1\CCC/C(=C/c2cccs2)C1=O | inconclusive: 32.8%
Cn1c(N)c(S(=O)(=O)N2CCN(c3ccccc3F)CC2)c(=O)n(C)c1=O | inactive: -7.15%
CN(C)c1ccc(/C=C(/C#N)C(=O)Nc2nc3c(s2)CCN(Cc2ccccc2)C3)cc1 | inconclusive: 41.2%
COc1ccc([N+](=O)[O-])cc1N(CC(=O)NC1CCCCC1)S(C)(=O)=O | inactive: 1.47%
CCOc1cc(/C=C2\C(=O)N(c3ccc(C(N)=O)cc3)N=C2C)ccc1OC(=O)c1cccs1 | inconclusive: 32.1%
O=C(NCC1CCCO1)c1nn2c(C(F)(F)F)cc(-c3cc(Br)cs3)nc2c1Br (stereo unspecified) | inconclusive: 57.2%
COC(=O)c1c(C)[nH]c(C(=O)CC#N)c1C | inconclusive: 31.6%
CN(C)c1ccc2c(O)cc(=O)n(C)c2c1 | inactive: 23.3%
O=C1/C(=C/c2ccccn2)SC(=S)N1NS(=O)(=O)c1ccccc1 | inactive: 8.55%
O=C(Nc1c[nH]c(=O)[nH]c1=O)c1cccc([N+](=O)[O-])c1 | inactive: -9.65%
CC(C)N1CCc2c(sc(NC(=O)c3ccc([N+](=O)[O-])o3)c2C(N)=O)C1 | inactive: -6.69%
CCCNC(=O)Cn1c(=O)/c(=C\c2ccc(-c3cccc([N+](=O)[O-])c3)o2)s/c1=C\C(=O)C(C)(C)C | inconclusive: 69.6%
CC(C)(C)c1cc[n+](-c2[nH]c(=O)sc2/C=N/NC([S-])=Nc2ccccc2)cc1 | inconclusive: 130%
COc1ccc(NS(=O)(=O)c2cc(NC(=O)c3sccc3C)ccc2N2CCOCC2)cc1 | inactive: 0.57%
CCOc1ccc(C(=O)Nc2cccc(NC(=O)c3cccs3)c2)cc1[N+](=O)[O-] | inactive: -6.19%
CCNC(=S)N/N=C/c1sc(N2CCCCC2)nc1-c1cccs1 | inconclusive: 115%
O=C(NN1C(=O)/C(=C/c2cccs2)SC1=S)c1ccccc1 | inactive: -1.93%

Compound | inhibition
O=C1/C(=C/c2ccccc2)Nc2ccccc21 | inconclusive: 166%
COc1ccccc1N1C(=O)c2cccc3c(N(C)CCO)ccc(c23)C1=O | inconclusive: 54.7%
O=C(O)c1cccc(-n2sc3ccccc3c2=O)c1 | inactive: -2.4%
COc1ccccc1/C=C1\SC(=S)N(CCC(=O)Nc2cc(C)on2)C1=O | inconclusive: 36.6%
Cc1[nH]n(-c2ccccc2)c(=O)c1C(c1ccccc1C(=O)O)c1c(C)[nH]n(-c2ccccc2)c1=O | inactive: -2.59%
N#CC1=C(N)C2=CCCC[C@H]2[C@H](c2cccc(F)c2)C1(C#N)C#N | inactive: -4.34%
NC1=C(Br)C(=O)c2ncccc2C1=O | inactive: 20.2%
N#C/C(=C/c1ccc(-c2ccc(S(N)(=O)=O)cc2)o1)c1nc2ccccc2s1 | inconclusive: 74.7%
Cc1cc(C(=O)COC(=O)c2cc(O)c3ccccc3c2O)c(C)n1CC1CCCO1 (stereo unspecified) | inconclusive: 60.4%
O=C(CSc1nnc(Cn2c(=O)sc3ccccc32)n1CCc1ccccc1)N1CCCC1 | inconclusive: 152%
C1=C(c2ccc(-c3ccccc3)cc2)Nc2ncnn2C1c1ccco1 (stereo unspecified) | inconclusive: 178%
Cc1ccc(NC(=O)c2ccc(S(=O)(=O)Nc3c(C)n(C)n(-c4ccccc4)c3=O)cc2)nc1 | inactive: -5.09%
O=C(O)c1ccccc1C1=Nc2ccc(O)cc2Oc2cc(O)ccc21 | inconclusive: 177%
Cc1occc1C(=O)N/N=C/C1=C(N2CCOCC2)C(=C\c2ccc(Cl)cc2Cl)/CC1 | inconclusive: 84.3%
CC1=C/C(=N\OS(=O)(=O)c2ccccc2)C=CC1=O | inconclusive: 95.2%
Oc1ccccc1C=NN=Cc1c(O)ccc2ccccc12 | inconclusive: 41.8%
CN(C)S(=O)(=O)c1cccc2c1C(=O)c1ccccc1C2=O | inactive: -1.92%
CCNC1=C(Cl)C(=O)c2ccccc2C1=O | inactive: 6.43%
Cn1cccc1/C=C1\CCC/C(=C\c2cccn2C)C1=O | inconclusive: 164%
O=C1N/C(=C/c2cccn2-c2ccc(F)cc2)C(=O)N1Cc1ccccc1 | inactive: -0.68%
Cn1c2nc(=O)n(-c3ccccc3)c(=O)c-2nc2c1CCCC2 | inconclusive: 105%
O=C1NC(=O)/C(=C/c2cccc(O)c2)N1 | inactive: 1.96%

Compound | inhibition
C=CCn1c(O)c(CN2CCN(Cc3ccccc3)CC2)c(C)c(C#N)c1=O | inconclusive: 55.5%
COc1ccc(-c2nn(-c3ccccc3)cc2/C=N/NC(=O)c2cccc(S(=O)(=O)Nc3ccccc3OC)c2)cc1 | inactive: -3.64%
COc1ccc(Nc2nc3cc(C)ccc3cc2C#N)c(OC)c1 | inconclusive: 29.8%
COc1cc(/C=C2\SC(=S)N(NS(=O)(=O)c3ccccc3)C2=O)ccc1O | inconclusive: 46.5%
COc1ccc(NC(=O)c2ccco2)cn1 | inconclusive: 30.6%
Cc1ccc2c(c1)[C@H]1[C@H](CO2)[C@H](c2ccccc2)[C@]2(C)C(=O)N(Cc3ccc(F)cc3)CC(=O)N12 | inconclusive: 36.2%
CC(=O)C1N=NCC1c1ccccc1 (stereo unspecified) | inactive: 0.78%
COc1ccc2nc3ccccc3nc2c1NC(=O)c1ccc(Cl)cc1Cl | inconclusive: 152%
NC(=O)CSc1nnc(-c2cccs2)n1-c1ccccc1 | inactive: -6.45%
O=C1/C(=C/c2ccc3c(c2)OCO3)SC(=S)N1CCC(=O)N(CCO)c1ccccc1 | inconclusive: 44%
CCOC(=O)C1=C(O)c2ccccc2C(=O)/C1=C\c1ccc(CC)cc1 | inconclusive: 129%
Cc1ccc(C(=O)C(C)OC(=O)C2CCN(c3ccc(C(F)(F)F)cn3)CC2)cc1 (stereo unspecified) | inactive: -0.72%
Oc1ccc(N=Cc2ccc(O)c(O)c2)cc1 | inconclusive: 85.7%
CCNC(=O)c1cc2c(=O)n3cccc(C)c3nc2n(CCc2ccccc2)c1=N | inconclusive: 77.7%
CC1(C)OC1(C#N)c1ccccc1 (stereo unspecified) | inactive: -5.44%
Cc1[nH][nH]c(=O)c1C(c1ccc(-c2cccc(C(=O)O)c2)o1)c1c(C)[nH][nH]c1=O | inactive: 21.1%
COc1ccc(CCNC(=O)c2cc3c(=O)n4cccc(C)c4nc3n(CCCN3CCOCC3)c2=N)cc1 | inconclusive: 44.8%
CCCC(NC(=O)Cc1c(C)c2cc3c(C)c(C)oc3c(C)c2oc1=O)C(=O)N[C@@H](Cc1ccccc1)C(=O)O (stereo partly specified) | inactive: 1.45%
Brc1ccc(-c2cn3nc4c(nc3n2)CCCC4)cc1 | inconclusive: 76.5%
N#C/C(=C\c1coc2ccc(O)cc2c1=O)C(=O)Nc1nc2ccccc2s1 | inconclusive: 192%
CCOc1ccc(/C=C2\SC(=S)N(C(C(=O)O)c3ccccc3)C2=O)cc1OC (stereo unspecified) | inactive: 16.8%
CSc1ccc(C2NC(=O)c3c(sc4c3CCN(C)C4)N2)cc1 (stereo unspecified) | inconclusive: 102%

Compound | inhibition
Cc1oc2c(cc(NS(=O)(=O)c3ccc(Cl)cc3)c3ccccc32)c1C(=O)O | inactive: 14.3%
COC(=O)c1cc2c(C)c(C)c3ccccn3c-2c1C(=O)OC | inconclusive: 47.2%
N#CC(=Cc1cccs1)c1nc(-c2ccc(Cl)cc2)cs1 | inconclusive: 37.4%
COCCCn1c(=O)/c(=C\c2ccccc2OC(C)C)s/c1=C(/C#N)C(=O)Nc1ccc(C(=O)O)cc1 | inconclusive: 168%
Cc1cc(/C=N/NC(N)=S)c(O)c(/C=N/NC(N)=S)c1 | inconclusive: 45%
CCOCCCNc1nc2c(C)cccn2c(=O)c1/C=C1\SC(=S)N(C(C)CC)C1=O (stereo unspecified) | inconclusive: 45.3%
CCOc1ccc2c(C)c(Cl)c(=O)oc2c1 | inactive: -0.69%
O=C1C=C(O)c2cccc(O)c2C1=O | inactive: 10.9%
CCOC(=O)N1CCN(C(=O)c2ccc3c(c2)NC(=O)/C(=C/c2ccccc2)S3)CC1 | inconclusive: 41.2%
Cc1nc2ccccc2n2c(O)c(CC(=O)O)cc12 | inconclusive: 67.4%
CN(C)c1ccc(/C=C(\C#N)C(=O)Nc2nc3c(s2)CCN(Cc2ccccc2)C3)cc1 | inconclusive: 97.1%
Cc1cc2ccccc2n1CCNC(=O)c1ccccc1 | inconclusive: 30.7%
N#C/C(=C\c1cccc(OC(=O)c2cccs2)c1)C(N)=O | inactive: -25%
COc1ccc(/C=N/N=C2/CC(C)(C)Cc3n[nH]c(=O)cc32)cc1 | inconclusive: 65.7%
CCCCOC(=O)c1ccc(N=Nc2c(C)c(C#N)c(O)[nH]c2=O)cc1 | inconclusive: 77.2%
CCN(CC)c1ccc(/C=C2/C(=O)c3ccc(C(=O)O)cc3C2=O)cc1 | inconclusive: 153%
CCc1ccccc1N=Cc1c(C)c(C#N)c2[nH]c3ccccc3n2c1=O | inconclusive: 109%
N#C/C(=C\c1cccc(Oc2ccc(C(F)(F)F)cc2[N+](=O)[O-])c1)c1nc2ccccc2[nH]1 | inactive: -4.47%
O=C1c2c(O)cc(O)cc2O[C@H](c2ccc(O)c(O)c2)[C@H]1O | inconclusive: 30%
Cc1ccc(OCCN2C(=O)c3ccccc3C2=O)c(C)c1 | inactive: 1.61%
